Experimental data from PubChem BioAssay AID1347165 (National Center for Advancing Translational Sciences (NCATS), 2019).
About 5,700 (2.6%) of roughly 220,000 compounds were called active. Inconclusive results, whose numbers are uncertain, are shown with a selection of clear calls. Calls come from the whole dose curve; as a rule, active = well fitted inhibition curve with a large enough effect; inconclusive = small, poorly fitted or top-dose-only effect; inactive = no such curve, though single readings can be large or run the other way. Potencies beside an inconclusive call are fits to weak or partial responses and may not hold up.

Target: Lysine-specific demethylase 5B (Homo sapiens) (UniProt Q9UGL1)
Test: Primary screen for KDM5B Histone Demethylases FDH-coupled qHTS; note: nearly all actives have a fitted effect of over 70% in size; for activity change, negative = inhibition: 0% is about no effect
Details: FDH-coupled NADH fluorescence (FDH is formaldehyde dehydrogenase); activity change, negative = inhibition: at 57.7 µM (top of the series) unless noted
How it was run: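 qHTS format, multiple compound concentrations. Buffer 50 mM HEPES pH 7.5/0.01% Tween-20; 200 nM KDM5BΔAP final; 10 min compound preincubation; substrate-mix levels 12.5 µM peptide, 25 µM α-KG, 0.25 mM NAD⁺; 30 min RT; ΔRFU.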
Potency is the fitted concentration of half-maximal effect; tags give direction and shape of the fitted curve.

Sequence of UniProt Q9UGL1 (Q9UGL1 whole entry, looked up): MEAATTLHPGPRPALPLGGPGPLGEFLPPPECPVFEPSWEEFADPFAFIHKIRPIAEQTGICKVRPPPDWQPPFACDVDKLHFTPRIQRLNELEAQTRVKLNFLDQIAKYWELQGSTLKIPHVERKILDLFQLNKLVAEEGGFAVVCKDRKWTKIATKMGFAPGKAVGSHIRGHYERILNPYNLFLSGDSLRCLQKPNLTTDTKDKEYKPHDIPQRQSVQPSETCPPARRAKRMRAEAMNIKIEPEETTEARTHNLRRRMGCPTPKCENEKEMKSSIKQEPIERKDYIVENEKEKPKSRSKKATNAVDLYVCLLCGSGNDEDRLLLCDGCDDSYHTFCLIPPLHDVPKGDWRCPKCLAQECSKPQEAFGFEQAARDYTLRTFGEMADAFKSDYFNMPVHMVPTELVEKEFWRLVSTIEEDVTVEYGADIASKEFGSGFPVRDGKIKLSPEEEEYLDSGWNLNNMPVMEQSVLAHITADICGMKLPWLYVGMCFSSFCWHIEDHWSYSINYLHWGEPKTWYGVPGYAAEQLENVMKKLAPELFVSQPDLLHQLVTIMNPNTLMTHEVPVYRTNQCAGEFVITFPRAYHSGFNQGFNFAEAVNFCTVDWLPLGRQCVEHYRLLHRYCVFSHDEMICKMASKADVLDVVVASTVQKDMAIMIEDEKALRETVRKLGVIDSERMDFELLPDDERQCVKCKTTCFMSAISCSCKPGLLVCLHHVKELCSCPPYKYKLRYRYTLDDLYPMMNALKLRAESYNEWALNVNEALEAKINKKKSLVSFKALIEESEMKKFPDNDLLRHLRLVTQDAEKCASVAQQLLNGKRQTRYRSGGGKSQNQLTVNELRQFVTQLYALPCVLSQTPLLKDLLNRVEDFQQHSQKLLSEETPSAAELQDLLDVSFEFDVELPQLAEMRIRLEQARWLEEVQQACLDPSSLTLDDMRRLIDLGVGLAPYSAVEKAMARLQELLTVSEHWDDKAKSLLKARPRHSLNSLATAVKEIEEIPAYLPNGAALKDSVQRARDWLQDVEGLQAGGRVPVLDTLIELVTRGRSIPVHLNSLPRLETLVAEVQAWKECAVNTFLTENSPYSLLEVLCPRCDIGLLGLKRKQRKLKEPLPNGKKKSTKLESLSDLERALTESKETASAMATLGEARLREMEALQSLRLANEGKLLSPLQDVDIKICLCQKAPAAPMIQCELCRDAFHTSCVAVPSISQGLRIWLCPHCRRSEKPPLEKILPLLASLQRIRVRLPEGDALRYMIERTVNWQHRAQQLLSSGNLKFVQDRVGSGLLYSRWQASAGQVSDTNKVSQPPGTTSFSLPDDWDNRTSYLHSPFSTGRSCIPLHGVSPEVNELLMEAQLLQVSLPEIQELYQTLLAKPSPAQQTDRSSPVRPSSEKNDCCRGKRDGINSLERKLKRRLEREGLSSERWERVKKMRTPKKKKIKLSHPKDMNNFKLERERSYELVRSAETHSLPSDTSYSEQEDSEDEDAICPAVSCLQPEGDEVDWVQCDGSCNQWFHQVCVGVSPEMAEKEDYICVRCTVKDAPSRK

Structure (SMILES) | activity change, negative = inhibition | Potency
O=C(Nc1ccccc1Br)c1cc(S(=O)(=O)NC2CCCCC2)ccc1F | inconclusive: -32.3% [inhibitor] | 
C/C(=N/NC(=O)CC#N)c1ccc(C)cc1C |  | inconclusive: 39.8 µM [inhibitor, single point]
CCCc1ccc(-c2cc(C(=O)O)c3ccccc3n2)cc1 |  | inconclusive: 25.1 µM [inhibitor, partial curve, poor fit]
CS(=O)(=O)Nc1ccc(C2(C(=O)NCc3cccc(Cl)c3)CCCCC2)cc1 | inactive: -13% | 
Cc1ccc(C(C(=O)NCc2ccc(O)cc2)N(C)C)cc1 (stereo unspecified) |  | inconclusive: 31.6 µM [inhibitor, single point]
Cc1ccc(Nc2ncc(C(=O)N3CCN(c4cccc(Cl)c4)CC3)c3ccccc23)cc1Cl |  | inconclusive: 15.8 µM [inhibitor, partial curve, poor fit]
Cc1ccc2oc(C(=O)Nc3cccc(-c4nc5ccccc5s4)c3)c(C)c2c1 |  | inconclusive: 39.8 µM [inhibitor, single point]
CCn1cc(C(=O)NCCC(=O)NCCCO)c(=O)c2cc3c(cc21)OCO3 |  | inconclusive: 39.8 µM [inhibitor, partial curve, poor fit]
COc1ccc(-c2cc(N3CCCC(NC(=O)c4cc(C)cc(C)c4)C3)n[nH]2)cc1 (stereo unspecified) | inactive: -11.1% | 
C=Cc1cccc(CN2CCCC3(CCNC3)C2)c1 (stereo unspecified) |  | inconclusive: 3.55 µM [inhibitor, partial curve, poor fit]
Cc1c(C(=O)N2CCCC2)oc2c1-c1nn(CC(=O)NC(C)c3ccccc3)cc1CC2 (stereo unspecified) |  | inconclusive: 2.24 µM [inhibitor, full curve, poor fit]
Cc1ccc(NC(=O)Cn2c(N3CCCCC3)nc(C)c(C)c2=O)c(Cl)c1 | inactive: 2.75% | 
CCC(C(=O)Nc1cc(OC)ccc1OC)n1c(C)c2cnn(-c3ccccc3)c(=O)c2c1C (stereo unspecified) | inconclusive: -37.7% [inhibitor] | 
Cc1cc(F)ccc1NC(=O)c1ccc2nc(Cc3ccccc3)oc2c1 |  | inconclusive: 28.2 µM [inhibitor, single point]
O=C(NC1CC1)c1nc[nH]c1C(=O)NC1CCCCNC1=O (stereo unspecified) | inactive: -18.7% | 
Cn1cccc1CN1CCCN(S(C)(=O)=O)C(c2ccccc2)CC(=O)NCC1 (stereo unspecified) |  | inconclusive: 25.1 µM [inhibitor, single point]
COc1ccc(CC(=O)NCC(c2cccs2)S(=O)(=O)c2ccc(Cl)cc2)cc1 (stereo unspecified) |  | inconclusive: 22.4 µM [inhibitor, single point]
CNc1oc(-c2ccccc2OC)nc1S(=O)(=O)c1ccc2c(c1)OCCO2 |  | inconclusive: 39.8 µM [inhibitor, single point]
CCOC(=O)C1=CN(Cc2ccc(F)cc2)C=C(C(=O)OCC)C1c1ccc(O)cc1 |  | inconclusive: 25.1 µM [inhibitor, partial curve, poor fit]
Cc1ccc(C)c(Cn2c(C(C)NC(=O)c3ccco3)nc3ccccc32)c1 (stereo unspecified) | inactive: 13.5% | 
Cc1ccc(N(CC(=O)O)CC(=O)O)cc1 |  | inconclusive: 31.6 µM [inhibitor, partial curve, poor fit]
CCn1nc(CC(C)C)cc1C(=O)N1CCN(S(=O)(=O)CC)CC1 | inactive: 27.2% | 

Structure (SMILES) | activity change, negative = inhibition | Potency
CCCn1c2ccccc2c2cnn(CC(=O)N(Cc3ccccc3)C(C)C)c(=O)c21 |  | inconclusive: 31.6 µM [inhibitor, partial curve, poor fit]
Cc1ncccc1Oc1ncnc(N2CCCCC(N)C2)c1C (stereo unspecified) |  | inconclusive: 12.6 µM [inhibitor, partial curve]
CC1(c2noc(C3CC3)n2)CCN(C(=O)CCc2nc3ccc(Cl)cc3[nH]2)CC1 | inactive: 5.69% | 
O=S1(=O)N=C(N(CCO)/N=C/c2ccc(Cl)cc2)c2ccccc21 |  | inconclusive: 25.1 µM [inhibitor, partial curve, poor fit]
Cc1ccc(F)cc1NC(=O)N1CCN(c2ccnc3cc(Cl)ccc23)CC1 |  | inconclusive: 39.8 µM [inhibitor, partial curve, poor fit]
COCCNC(=O)c1ccc(OC2CCN(CCc3ccccc3)CC2)c(Cl)c1 | inactive: -5.5% | 
COc1ccc2c(CNCCc3cccs3)c(C(=O)O)n(Cc3ccccc3C)c2c1 |  | inconclusive: 31.6 µM [inhibitor, single point]
CC(C)CNC(=O)N1CCC(Nc2cccnc2)C1 (stereo unspecified) |  | inconclusive: 22.4 µM [inhibitor, single point]
Cc1ccc(C)c(S(=O)(=O)N2CCN(CC(=O)NC(=O)NC(C)(C)C)CC2)c1 | inactive: 0.736% | 
CC(C)c1ccc(C2C(C#N)=C(N)Oc3c2ccc2ccccc32)cc1 (stereo unspecified) |  | inconclusive: 25.1 µM [inhibitor, partial curve, poor fit]
CC(O)CNc1nc(C(C)C)c2c(c1C#N)CCCC2 (stereo unspecified) |  | inconclusive: 22.4 µM [inhibitor, single point]
COc1ccc(CCNC(=O)CCc2cn(Cc3ccc(C)cc3)c3ccccc23)c(OC)c1OC |  | inconclusive: 31.6 µM [inhibitor, partial curve, poor fit]
CCC(C)NC(=O)c1[nH]c2cc(C)ccc2c1Sc1ccc(Cl)cc1 (stereo unspecified) | inactive: -26.2% | 
CCOC(CNC(=O)CS(=O)Cc1nc(-c2ccccc2)oc1C)OCC (stereo unspecified) | inactive: -8.81% | 
O=[S+]([O-])(NCC1CN(Cc2ccncc2Cl)CC12CN(c1ccccc1)C2)c1ccccc1 (stereo unspecified) |  | inconclusive: 25.1 µM [inhibitor, partial curve]
COc1cc(OC)c(NC(=O)Cc2ccc(-n3c(C)nc4cccnc43)cc2)cc1Cl |  | inconclusive: 8.91 µM [inhibitor, partial curve, poor fit]
Cc1noc(-c2ccn3c(CNC(=O)c4cc5ccccc5[nH]4)nnc3c2)n1 |  | inconclusive: 5.62 µM [inhibitor, single point]
O=C(/C=C/c1ccc(Cl)c([N+](=O)[O-])c1)c1cccnc1 |  | inconclusive: 14.1 µM [inhibitor, partial curve, poor fit]
COCC(=O)N1CCC(Oc2ccccc2-c2nc(C3CCOCC3)no2)C1 (stereo unspecified) |  | inconclusive: 17.8 µM [inhibitor, single point]
Cc1n[nH]c(C)c1C(N)C(=O)NCCc1cccc(C(F)(F)F)c1 (stereo unspecified) | inactive: 43.7% | 
C[S+](=O)([O-])c1cccc(-c2cnc3[nH]cc(CC(N)=O)c3c2)c1 | inactive: -25.8% [at 86.2 µM] | 
O=C1CCCc2cc(S(=O)(=O)NCC3CCC(C(=O)NCCc4ccccc4)CC3)ccc2N1 (stereo unspecified) | inactive: -9.01% | 

Structure (SMILES) | activity change, negative = inhibition | Potency
CCCCN(C)CCCNC(=O)c1cc(-c2cccnc2)nc2ccccc12 |  | inconclusive: 14.1 µM [inhibitor, partial curve, poor fit]
CCOC(=O)c1cc(-c2ccc(N3CCOCC3)cc2)nn1-c1ccccc1C(=O)O |  | inconclusive: 7.94 µM [inhibitor, partial curve, poor fit]
O=C(O)c1ccc(CC2CCN(Cc3cnc(-c4ccco4)nc3)C2)cc1 (stereo unspecified) |  | inconclusive: 25.1 µM [inhibitor, single point]
CCCc1nc(NCC2CCCO2)c(C#N)c2c1CCCC2 (stereo unspecified) |  | inconclusive: 17.8 µM [inhibitor, partial curve, poor fit]
CCc1cc(=O)oc2c(C)c(OCC(=O)NCc3ccccn3)ccc12 | inactive: 18.8% | 
Cc1ccccc1S(=O)(=O)N1CCC(CCC(=O)Nc2cccnc2)CC1 | inactive: 25.5% | 
CC1CCCCC1NC(=O)c1ccc2c(Cl)c3c(nc2c1)CCCC3 (stereo unspecified) | inactive: 4.36% | 
CC1CCCN1c1ncnc2c1CN(C1CCCNCC1)C(=O)CN2C (stereo unspecified) |  | inconclusive: 50.1 µM [inhibitor, partial curve, poor fit]
Cn1nnnc1-c1cccc(NCC(=O)NC2(C#N)CCCC2)c1 | inactive: 12.3% | 
COc1ccccc1CCNC(=O)CCc1c(C)c2cc3c(C)c(C)oc3cc2oc1=O |  | inconclusive: 17.8 µM [inhibitor, partial curve, poor fit]
NCc1ccc(Oc2ncnc3ccccc23)cc1 |  | inconclusive: 112 µM [inhibitor, partial curve]
N#Cc1ccccc1OCC(=O)c1ccc(NC(=O)c2ccccc2)cc1 |  | inconclusive: 17.8 µM [inhibitor, partial curve, poor fit]
Cc1c(/C=C(/C#N)c2ccccn2)cc(C#N)n1C | inactive: 0.367% | 
Cc1ccc(C2=NC3(CCN(C(=O)c4ccccc4Cl)CC3)ON2)cc1 | inactive: 2.71% | 
COc1ccc(C(=O)N2CCc3nc(C(C)C)nc(-c4ccc(OC)cc4)c3C2)cc1 | inactive: 5.64% | 
COc1ccc(NC(=O)Cn2c(=O)n(-c3ccc(OC)cc3)c(=O)c3ccc(C(=O)NCc4ccc(C)cc4)cc32)cc1 |  | inconclusive: 17.8 µM [inhibitor, partial curve, poor fit]
COc1ccc(C(=O)N2CC[C@@H]3CN(c4cnccn4)[C@@H]3C2)c(OC)n1 |  | active: 31.6 µM
Cc1cc(OCC(=O)N(Cc2ccc(N(C)C)cc2)C2CCS(=O)(=O)C2)cc(C)c1Cl (stereo unspecified) |  | inconclusive: 25.1 µM [inhibitor, partial curve, poor fit]
COc1cccc(-c2cn3c(n2)N(C(=O)c2ccoc2)CCC3)c1 |  | inconclusive: 20 µM [inhibitor, partial curve, poor fit]
CN1c2cc(C(=O)NCc3ccc(F)cc3)ccc2C(=O)N2CCCCCC21 (stereo unspecified) |  | inconclusive: 22.4 µM [inhibitor, partial curve, poor fit]
CC(C)N(C)S(=O)(=O)c1ccc(NC(=O)c2cc3ccccc3oc2=O)cc1 | inactive: 6.27% | 
O=C(Nc1cccc(Cl)c1)c1nnc(C(=O)N2CCC(C(=O)NCCN3CCCC3)CC2)s1 |  | inconclusive: 39.8 µM [inhibitor, single point]
